Experimental data published in US20220380450A1 (AstraZeneca / MedImmune, published 2022).

Target: T1, Untagged IL33-01 (human, UniProt O95760 112-270)
T1 construct: Reduced wild type form; also called reduced IL-33; WT IL-33
T1 sequence: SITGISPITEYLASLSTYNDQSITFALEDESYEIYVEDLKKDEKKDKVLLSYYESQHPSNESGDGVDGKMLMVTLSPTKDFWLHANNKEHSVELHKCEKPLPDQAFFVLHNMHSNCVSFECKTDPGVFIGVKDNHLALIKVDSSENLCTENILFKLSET
Experiment: depletion of remaining reduced IL-33 from the oxIL-33 preparation, in solution, then size exclusion
Experimental: Aggregates generated during the oxidation process were removed from the sample by loading it on a HiTrap Capto Q ImpRes anion exchange column (GE Healthcare, 17547055). […] Final product quality was assessed by SDS-PAGE, HP-SEC and RP-HPLC.

- binding result: binds
B1: Human ST2S-huIgG1 Fc-His6 (Fc fusion)
chain: KFSKQSWGLENEALIVRCPRQGKPSYTVDWYYSQTNKSIPTQERNRVFASGQLLKFLPAAVADSGIYTCIVRSPTFNRTGYANVTIYKKQSDCNVPDYLMYSTVSGSEKNSKIYCPTIDLYNWTAPLEWFKNCQALQGSRYRAHKSFLVIDNVMTEDAGDYTCKFIHNENGANYSVTATRSFTVKDEQGFSLFPVIGAPAQNEIKEVEIGKNANLTCSACFGKGTQFLAAVLWQLNGTKITDFGEPRIQQEEGQNQSFSNGLACLDMVLRIADVKEEDLLLQYDCLALNLHGLRRHTVRLSRKNPSKECF[human IgG1 Fc and a few adjoining residues not given here]
notes: The underlining of the signal peptide is lost in the text; also called ST2S-Fc-His6; soluble human ST2S extracellular domain fused to human IgG1 Fc-His6
